Results taken from patent US11178870B2 (priority 2017, dated 2021).

Experiments:
Assay type in all cases: in vivo
[1] = system: Puccinia recondita; assay: Test Example E: Brown rust on wheat; conditions: for Test E control value (brown rust on wheat): class of control value, Table 7; for control value, Test E (brown rust on wheat): Table 7, Test E; for Test E control value: Brown rust on wheat
[2] = system: Plasmopara viticola; assay: Test Example G: Downy mildew on vine; conditions: for Test G control value (downy mildew on vine): 250 ppm spray, investigated 7 to 10 days after inoculation; for Test G control value (downy mildew on vine) / Test G control value: 2.5 ml/pot; for control value, Test G (downy mildew on vine): 250 ppm sprayed (2.5 ml/pot) before inoculation, assessed 7 to 10 days after inoculation; for Test G control value: Downy mildew on vine, 250 ppm sprayed, 7 to 10 days after inoculation
[3] = system: Blumeria graminis f. sp. hordei; assay: Test Example D: Powdery mildew on barley; conditions: for Test D control value (powdery mildew on barley): class of control value, Table 7; for control value, Test D (powdery mildew on barley): Table 7, Test D; for Test D control value: Powdery mildew on barley
[4] = system: Botrytis cinerea; assay: Test Example B: Gray mold on tomato; conditions: for Test B control value (gray mold on tomato): class of control value, Table 7; for control value, Test B (gray mold on tomato): Table 7, Test B; for Test B control value: Gray mold on tomato
[5] = system: Alternaia brassicicola; assay: Test Example C: Alternaria sooty spot on cabbage; conditions: for Test C control value (Alternaria sooty spot on cabbage): class of control value, Table 7; for control value, Test C (Alternaria sooty spot on cabbage): Table 7, Test C; for Test C control value: Alternaria sooty spot on cabbage

Compound	Test E control value (brown rust on wheat) [1]	Test G control value (downy mildew on vine) [2]	Test D control value (powdery mildew on barley) [3]	Test B control value (gray mold on tomato) [4]	Test C control value (Alternaria sooty spot on cabbage) [5]	control value, Test E (brown rust on wheat) [1]	control value, Test G (downy mildew on vine) [2]	control value, Test D (powdery mildew on barley) [3]	control value, Test B (gray mold on tomato) [4]	control value, Test C (Alternaria sooty spot on cabbage) [5]	also measured
CN(C)n1c(-c2c(F)cccc2F)c(-c2ccsc2Cl)cc(Br)c1=O [Compound 455]	L (L shows the control value of 50% or less)	L (L shows the control value of 50% or less)	L (L shows the control value of 50% or less)	L (L shows the control value of 50% or less)	H (H shows the control value more than 50%)						
Cc1sccc1-c1ccc(=O)n(C)c1-c1c(F)cccc1F [Compound 431]	H (H shows the control value more than 50%)	L (L shows the control value of 50% or less)	L (L shows the control value of 50% or less)	H (H shows the control value more than 50%)	H (H shows the control value more than 50%)						
O=c1c(Cl)cc(-n2cc(Cl)cn2)c(-c2ccc(F)cc2Cl)n1CC(F)F [Compound 234]						H (H shows the control value more than 50%)	L (L shows the control value of 50% or less)	H (H shows the control value more than 50%)	H (H shows the control value more than 50%)	H (H shows the control value more than 50%)	
Cn1c(-c2c(F)cccc2F)c(-c2sc(Cl)cc2Cl)cc(Cl)c1=O [Compound 440]	L (L shows the control value of 50% or less)	H (H shows the control value more than 50%)	L (L shows the control value of 50% or less)	L (L shows the control value of 50% or less)	H (H shows the control value more than 50%)						
O=c1ccc(-c2cccnc2Cl)c(-c2c(F)cc(F)cc2F)n1CC(F)F [Compound 67]											Test E control value [1]: H (H shows the control value more than 50%); Test G control value [2]: H (H shows the control value more than 50%); Test D control value [3]: H (H shows the control value more than 50%); Test B control value [4]: H (H shows the control value more than 50%); Test C control value [5]: H (H shows the control value more than 50%)
COc1cc(F)c(-c2c(-n3cc(Cl)cn3)cc(Cl)c(=O)n2CC(F)F)c(F)c1 [Compound 111]											Test E control value [1]: H (H shows the control value more than 50%); Test G control value [2]: L (L shows the control value of 50% or less); Test D control value [3]: H (H shows the control value more than 50%); Test B control value [4]: H (H shows the control value more than 50%); Test C control value [5]: H (H shows the control value more than 50%)
O=c1ccc(-n2cnc(Cl)c2Cl)c(-c2ccccc2Cl)n1CC(F)F [Compound 231]						H (H shows the control value more than 50%)	L (L shows the control value of 50% or less)	H (H shows the control value more than 50%)	H (H shows the control value more than 50%)	H (H shows the control value more than 50%)	
CN1C(=O)CCC(c2ccsc2)=C1c1c(F)cccc1F [Compound 3]											Test E control value [1]: H (H shows the control value more than 50%); Test G control value [2]: H (H shows the control value more than 50%); Test D control value [3]: L (L shows the control value of 50% or less); Test B control value [4]: L (L shows the control value of 50% or less); Test C control value [5]: L (L shows the control value of 50% or less)
CCn1c(-c2c(F)cccc2Br)c(-n2cc(Cl)cn2)cc(Cl)c1=O [Compound 218]						L (L shows the control value of 50% or less)	L (L shows the control value of 50% or less)	L (L shows the control value of 50% or less)	L (L shows the control value of 50% or less)	H (H shows the control value more than 50%)	
Cc1ccsc1-c1ccc(=O)n(C)c1-c1c(F)cccc1F [Compound 496]	H (H shows the control value more than 50%)	H (H shows the control value more than 50%)	L (L shows the control value of 50% or less)	H (H shows the control value more than 50%)	H (H shows the control value more than 50%)						
Cn1c(-c2c(F)cccc2F)c(-c2sccc2Cl)ccc1=O [Compound 435]	H (H shows the control value more than 50%)	H (H shows the control value more than 50%)	L (L shows the control value of 50% or less)	H (H shows the control value more than 50%)	H (H shows the control value more than 50%)						
O=c1c(Cl)cc(-c2cccnc2Cl)c(-c2c(F)cc(F)cc2F)n1CC(F)F [Compound 68]											Test E control value [1]: H (H shows the control value more than 50%); Test G control value [2]: L (L shows the control value of 50% or less); Test D control value [3]: H (H shows the control value more than 50%); Test B control value [4]: H (H shows the control value more than 50%); Test C control value [5]: H (H shows the control value more than 50%)
Cc1ccccc1-c1c(-n2ncc(C)c2Cl)cc(Cl)c(=O)n1CC(F)F [Compound 306]						H (H shows the control value more than 50%)	L (L shows the control value of 50% or less)	H (H shows the control value more than 50%)	H (H shows the control value more than 50%)	H (H shows the control value more than 50%)	
CCn1c(-c2ccc(OC)cc2Cl)c(-n2cc(F)cn2)ccc1=O [Compound 362]						H (H shows the control value more than 50%)	H (H shows the control value more than 50%)	H (H shows the control value more than 50%)	H (H shows the control value more than 50%)	H (H shows the control value more than 50%)	
CCn1c(-c2ccc(F)cc2Br)c(-n2ncc(C)c2Cl)cc(Br)c1=O [Compound 333]						H (H shows the control value more than 50%)	H (H shows the control value more than 50%)	H (H shows the control value more than 50%)	H (H shows the control value more than 50%)	H (H shows the control value more than 50%)	
